Measured values: patent US20260193317A1, “COMBINATION THERAPY WITH ACTRIIB RECEPTOR VARIANTS AND GLP-1 AGONISTS” (35PHARMA Inc., priority 2023, published 2026)

T1: BMP-10 (Homo sapiens, UniProt O95393)
T1 sequence (O95393 317-424): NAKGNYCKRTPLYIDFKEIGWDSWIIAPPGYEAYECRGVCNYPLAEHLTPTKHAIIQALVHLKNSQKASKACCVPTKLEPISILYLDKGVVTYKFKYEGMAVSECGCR

T2: activin A (Homo sapiens, UniProt P08476)
T2 sequence (P08476 311-426): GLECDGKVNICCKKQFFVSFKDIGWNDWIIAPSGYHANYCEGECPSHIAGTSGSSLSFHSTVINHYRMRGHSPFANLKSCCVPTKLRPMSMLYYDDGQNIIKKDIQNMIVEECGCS

T3: activin B (Homo sapiens, UniProt P09529)
T3 sequence (P09529 293-407): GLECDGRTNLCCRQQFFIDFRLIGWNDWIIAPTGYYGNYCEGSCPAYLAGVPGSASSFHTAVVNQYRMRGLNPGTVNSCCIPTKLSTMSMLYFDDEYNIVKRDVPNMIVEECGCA

T4: BMP-9 (Homo sapiens, UniProt Q9UK05)
T4 sequence (Q9UK05 320-429): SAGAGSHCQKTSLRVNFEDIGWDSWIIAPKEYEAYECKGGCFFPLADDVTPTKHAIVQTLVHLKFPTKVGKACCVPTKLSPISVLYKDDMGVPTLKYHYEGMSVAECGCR

T5: recombinant human activin A (human, UniProt P08476 311-426)
T5 sequence (looked up): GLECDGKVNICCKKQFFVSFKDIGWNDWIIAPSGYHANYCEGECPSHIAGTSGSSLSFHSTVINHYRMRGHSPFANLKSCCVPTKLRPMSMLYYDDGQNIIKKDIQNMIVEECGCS

T6: BMP-9 (UniProt Q9UK05 320-429)
T6 sequence (looked up): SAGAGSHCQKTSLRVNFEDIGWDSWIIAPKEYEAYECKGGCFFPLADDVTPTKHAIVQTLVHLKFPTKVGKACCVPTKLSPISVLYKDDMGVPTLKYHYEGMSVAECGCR

T7: BMP-10 (UniProt O95393 317-424)
T7 sequence (looked up): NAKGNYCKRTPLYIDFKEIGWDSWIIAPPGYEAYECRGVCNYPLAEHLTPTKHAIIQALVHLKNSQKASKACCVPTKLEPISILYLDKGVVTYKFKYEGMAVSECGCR

T8: activin B (UniProt P09529 293-407)
T8 sequence (looked up): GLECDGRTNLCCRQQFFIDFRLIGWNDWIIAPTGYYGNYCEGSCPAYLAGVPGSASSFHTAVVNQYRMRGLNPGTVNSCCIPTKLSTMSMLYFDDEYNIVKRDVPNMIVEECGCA


Tests used:
[1] = SEC-HPLC monomer and HMW content of purified fusion proteins; format: physicochemical; settings: after Protein A purification
Text: Given that protein aggregation can be indicative of reduced conformational stability and decreased activity, Size-Exclusion Chromatography-High Performance Liquid Chromatography (SEC-HPLC) was used to determine the purity of each ActRIIB-ECD construct. This method measured the percentage of intact monomeric species as well as the presence of aggregates and/or degradation products.
All proteins expressed efficiently in CHO and/or 293 cells and purification efficiency of each using Protein A affinity chromatography was similar.

BMP-10 [2] = target: T1, BMP-10; assay: BMP-reporter HepG2 cell-based assay: BMP-10 neutralization; settings: BMP-reporter HepG2 cells, BMP-10 40 ng/mL
Protocol: (§1) Characterization of the BMP-9 and BMP-10 inhibition potency (IC50) of the fusion proteins was performed using a second cell-based reporter assay. Human hepatic HepG2 cells were transfected with a SEAP-encoding plasmid, in which SEAP expression is under the control of the murine Id1 promoter. A stable pool was generated from this transfection. Cells were grown in EMEM, containing 10% heat-inactivated FBS and 200 μg/mL zeocin (hereafter, “HepG2 growth medium”). […] For all assays, cells were seeded in 96-well plates at a confluence of 100,000 cells per well in HepG2 growth medium. Cells were left to attach for 10 minutes at RT prior to being transferred to a 37° C. incubator (5% CO2) overnight. The next day, treatments were prepared in EMEM (2.5% heat-inactivated FBS and with no selection agents) by combining the appropriate concentration of agent with BMP-9 or BMP-10 for 30 min at RT (shaking at 150 rpm). Treatments were conducted in EMEM (2.5% heat-inactivated FBS and with no selection agents), and the final concentration of BMP-9 and BMP-10 was 2 ng/mL and 40 ng/mL, respectively. HepG2 growth medium was removed from the culture plates, and cells were treated with the appropriate mixes of fusion protein and cytokine. Treatment duration was for 20-24 h at 37° C. (5% CO2). All treatments were performed in technical duplicates and at least one or two independent experiments were conducted for each cytokine. At the end of the treatment period, supernatants were transferred to a new plate, and centrifuged at 300 RPM for 3 min. Forty microlitres of supernatant from each condition was transferred to a new plate, onto which 180 μL of Quanti-Blue reagent was added. Quanti-Blue reagent was prepared following the manufacturer's instructions. Samples were incubated for 5-6 h with Quanti-Blue reagent at 37° C. At the end of the incubation, absorbance was read at 650 nm. The data were plotted in GraphPad Prism, which was used to calculate IC50 values as a non-linear regression.

activin A = target: T2, activin A; assay: TGFβ-reporter HEK293 cell-based assay: activin A neutralization; settings: for IC50: TGFβ-reporter HEK293 cells, ligand 0.3 nM
Protocol: (§2) Potency testing by neutralization on cell-based assays. Characterization of the activin A, activin B, GDF-8, and GDF-11 inhibition potency (IC50) of the fusion proteins was performed using a cell-based reporter assay. TGFβ-reporter HEK293 cells were obtained from InvivoGen (San Diego, CA, cat. no. hkb-tgfb) and were maintained following the manufacturer's instructions. Briefly, cells were grown in high-glucose DMEM, containing 10% heat-inactivated FBS, 30 μg/mL blasticidin, 250 μg/mL hygromycin B, and 100 μg/mL zeocin (hereafter, “growth medium”). Once the cells reached 70-80% confluence, they were detached in growth medium by gently tapping on the flask. For all assays, cells were seeded in 96-well plates at a density of 20,000 cells per well in growth medium. Cells were left to attach for 10 minutes at room temperature (RT) prior to being transferred to a 37° C. incubator (5% CO2) overnight. The next day, treatments were prepared by combining the appropriate concentration of agent with activin A, activin B, GDF-8, or GDF-11 for 30 min at RT (shaking at 150 rpm). Treatments were conducted in high-glucose DMEM (serum-free and with no selection agents), and the final concentration of cytokine (ligand) was 0.3 nM. Growth medium was removed from the culture plates, and cells were treated with the appropriate mixes of fusion protein and cytokine. Treatment duration was for 18-22 h at 37° C. (5% CO2). All treatments were performed in technical duplicates and at least one or two independent experiments were conducted for each cytokine. At the end of the treatment period, supernatants were transferred to a new plate, and centrifuged at 300 RPM for 3 min. Forty microlitres of supernatant from each condition was transferred to a new plate, into which 180 μL of Quanti-Blue reagent (InvivoGen, cat. no. rep-qbs) was added. Quanti-Blue reagent was prepared following the manufacturer's instructions. Samples were incubated for 45 min at 37° C. At the end of the incubation, absorbance was read at 650 nm. The data were plotted in GraphPad Prism, which was used to calculate IC50 values as a non-linear regression.

activin B [3] = target: T3, activin B; assay: TGFβ-reporter HEK293 cell-based assay: activin B neutralization; settings: TGFβ-reporter HEK293 cells, ligand 0.3 nM
Protocol: (§3) Potency testing by neutralization on cell-based assays. Characterization of the activin A, activin B, GDF-8, and GDF-11 inhibition potency (IC50) of the fusion proteins was performed using a cell-based reporter assay. TGFβ-reporter HEK293 cells were obtained from InvivoGen (San Diego, CA, cat. no. hkb-tgfb) and were maintained following the manufacturer's instructions. Briefly, cells were grown in high-glucose DMEM, containing 10% heat-inactivated FBS, 30 μg/mL blasticidin, 250 μg/mL hygromycin B, and 100 μg/mL zeocin (hereafter, “growth medium”). Once the cells reached 70-80% confluence, they were detached in growth medium by gently tapping on the flask. For all assays, cells were seeded in 96-well plates at a density of 20,000 cells per well in growth medium. Cells were left to attach for 10 minutes at room temperature (RT) prior to being transferred to a 37° C. incubator (5% CO2) overnight. The next day, treatments were prepared by combining the appropriate concentration of agent with activin A, activin B, GDF-8, or GDF-11 for 30 min at RT (shaking at 150 rpm). Treatments were conducted in high-glucose DMEM (serum-free and with no selection agents), and the final concentration of cytokine (ligand) was 0.3 nM. Growth medium was removed from the culture plates, and cells were treated with the appropriate mixes of fusion protein and cytokine. Treatment duration was for 18-22 h at 37° C. (5% CO2). All treatments were performed in technical duplicates and at least one or two independent experiments were conducted for each cytokine. At the end of the treatment period, supernatants were transferred to a new plate, and centrifuged at 300 RPM for 3 min. Forty microlitres of supernatant from each condition was transferred to a new plate, into which 180 μL of Quanti-Blue reagent (InvivoGen, cat. no. rep-qbs) was added. Quanti-Blue reagent was prepared following the manufacturer's instructions. Samples were incubated for 45 min at 37° C. At the end of the incubation, absorbance was read at 650 nm. […]

TGFβ superfamily ligands = assay: Neutralization profile across TGFβ superfamily ligands (HEK293 and HepG2 reporter assays, summary); format: cell-based, human
Protocol: as §2
Characterization of the BMP-9 and BMP-10 inhibition potency (IC50) of the fusion proteins was performed using a second cell-based reporter assay. Human hepatic HepG2 cells were transfected with a SEAP-encoding plasmid, in which SEAP expression is under the control of the murine Id1 promoter. A stable pool was generated from this transfection. Cells were grown in EMEM, containing 10% heat-inactivated FBS and 200 μg/mL zeocin (hereafter, “HepG2 growth medium”). […] For all assays, cells were seeded in 96-well plates at a confluence of 100,000 cells per well in HepG2 growth medium. Cells were left to attach for 10 minutes at RT prior to being transferred to a 37° C. incubator (5% CO2) overnight. The next day, treatments were prepared in EMEM (2.5% heat-inactivated FBS and with no selection agents) by combining the appropriate concentration of agent with BMP-9 or BMP-10 for 30 min at RT (shaking at 150 rpm). Treatments were conducted in EMEM (2.5% heat-inactivated FBS and with no selection agents), and the final concentration of BMP-9 and BMP-10 was 2 ng/mL and 40 ng/mL, respectively. HepG2 growth medium was removed from the culture plates, and cells were treated with the appropriate mixes of fusion protein and cytokine. Treatment duration was for 20-24 h at 37° C. (5% CO2). All treatments were performed in technical duplicates and at least one or two independent experiments were conducted for each cytokine. At the end of the treatment period, supernatants were transferred to a new plate, and centrifuged at 300 RPM for 3 min. Forty microlitres of supernatant from each condition was transferred to a new plate, onto which 180 μL of Quanti-Blue reagent was added. Quanti-Blue reagent was prepared following the manufacturer's instructions. Samples were incubated for 5-6 h with Quanti-Blue reagent at 37° C. […]

BMP-9 [4] = target: T4, BMP-9; assay: BMP-reporter HepG2 cell-based assay: BMP-9 neutralization; settings: BMP-reporter HepG2 cells, BMP-9 2 ng/mL
Protocol: as §1

GDF-11 [5] = target: GDF-11 (Homo sapiens, UniProt O95390); assay: TGFβ-reporter HEK293 cell-based assay: GDF-11 neutralization; settings: TGFβ-reporter HEK293 cells, ligand 0.3 nM
Protocol: as §2

[6] = target: T5, recombinant human activin A; assay: cell-based or functional assay
BMP-9 [7] = target: T6, BMP-9; assay: cell-based or functional assay
GDF-11 [8] = target: GDF-11 (UniProt O95390 299-407); assay: cell-based or functional assay
BMP-10 [9] = target: T7, BMP-10; assay: cell-based or functional assay
GDF-8 [10] = target: GDF-8 (UniProt O14793 267-375); assay: cell-based or functional assay
activin B [11] = target: T8, activin B; assay: cell-based or functional assay
GDF-8 [12] = target: GDF-8 (Homo sapiens, UniProt O14793); assay: TGFβ-reporter HEK293 cell-based assay: GDF-8 neutralization; settings: TGFβ-reporter HEK293 cells, ligand 0.3 nM
Protocol: as §3

Chain of GDF-11 (O95390 299-407): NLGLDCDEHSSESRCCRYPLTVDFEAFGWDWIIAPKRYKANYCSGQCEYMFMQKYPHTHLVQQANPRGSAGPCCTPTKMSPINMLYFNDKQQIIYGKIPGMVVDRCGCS

IC50 (BMP-10 [2]) [nM] | improved potency on activin A relative to P75 (activin A) | IC50 (activin A) [nM] | IC50 (activin B [3]) [nM] | IC50 (BMP-9 [4]) [nM] | IC50 (GDF-11 [5]) [nM] | Activin A IC50; TGFβ-reporter HEK293 cells [6] [nM] | BMP-9 IC50; BMP-reporter HepG2 cells (BMP-9 [7]) [nM] | GDF-11 IC50; TGFβ-reporter HEK293 cells (GDF-11 [8]) [nM] | BMP-10 IC50; BMP-reporter HepG2 cells (BMP-10 [9]) [nM] | GDF-8 IC50; TGFβ-reporter HEK293 cells (GDF-8 [10]) [nM] | Activin B IC50; TGFβ-reporter HEK293 cells (activin B [11]) [nM] | IC50 (GDF-8 [12]) [nM] | Molecule | high molecular weight (HMW) content (SEC-HPLC) [1] [%] | monomer content (SEC-HPLC) [1] [%] | reduced potency on most TGFβ superfamily ligands (activin B, GDF-8, GDF-11, BMP-9, BMP-10) relative to P75 (TGFβ superfamily ligands)
2.5 | ~ 1.5 fold | 1.5 | 2.1 | 3.5 | 1.6 |  |  |  |  |  |  |  | P754: hActRIIB T69Q, 14 aa linker, IgG1-DL Fc; SEQ ID 178 (protein) ETRECIYYNANWELERTNQSGLERCEGEQDKRLHCYASWRNSSGTIELVKKGCWLDDFNCYDRQECVAQEENPQVYFCCCEGNFCNERFTHLPEAGGPEVTYEPPPTGGGGSGGGGSGG[human IgG1 Fc and a few adjoining residues not spelt out] | 7 | 93 | ~ 2 fold
 |  |  |  |  |  | 3.5 | 1.1 | 2.1 | 4 | 2 | 6 |  | P739 (Fc fusion) ETRECIYYNANWELERTNQSGLERCEEEQDKRLHCYASWRNSSGTIELVKKGCWLDDFNCYDRQECVATEENPQVYFCCCEGNFCNERFTHLPEAGGPEVTYEPPPTGGGGSGGGGSGG[human IgG1 Fc and a few adjoining residues not spelt out] |  |  | 
2.9 | ~ 1.5 fold | 1.6 | 2.4 | 2.1 | 1.5 |  |  |  |  |  |  | 1.4 | P753: hActRIIB T69H, 14 aa linker, IgG1-DL Fc; SEQ ID 177 (protein) ETRECIYYNANWELERTNQSGLERCEGEQDKRLHCYASWRNSSGTIELVKKGCWLDDFNCYDRQECVAHEENPQVYFCCCEGNFCNERFTHLPEAGGPEVTYEPPPTGGGGSGGGGSGG[human IgG1 Fc and a few adjoining residues not spelt out] | 16 | 84 | ~ 2 fold
